“Also recorded” adds a separate entry of the source. Read-outs that look alike come from different tables or passages of the source. Not every detail of the peptide structures is certain; ends, links or a residue may be inferred. Some entries repeat one wording, which the source may state once for all of them. Positions of bridges follow the written chain, without caps; N, C: chain ends. Residues, ends and D or L forms follow the SMILES beside them. No end group written: not given here.
How the values were obtained:
A549 cells [1] = assay: A549 proliferation + stress assay (restoration of viability of Taxol-treated cells, CellTiter-Glo); assay type: cell-based, human; parameters: key to Estimated Activity in A549 proliferation + stress assay: Inactive: no activity up to 100 μM; WEAK: some or variable restoration of cell viability at 50-100 μM; MODERATE: moderate dose-dependent restoration of cell viability at >25 μM; STRONG: clear dose-dependent restoration of cell viability from 1-5 μM upwards; details: for Estimated Activity in A549 proliferation + stress assay: 350 μM Taxol, 16 hours, peptide 1-100 μM; for restoration of A549 viability: Taxol-treated A549 cells
Experimental: An assay was developed that involves stressing cells with a dose of the chemotherapeutic agent, Taxol, that causes a 50% inhibition of cell viability when compared to untreated cells. Peptides were then added to the cell cultures at increasing concentrations to assess their ability to restore the viability of the Taxol-treated cells.
Briefly, A549 cells were cultured in opaque-walled multiwell plates with 50000 A549 cells/well in culture medium (DMEM medium ref 11960-044 Thermoscientific, +10% FBS ref 10270-106 Gibco, Thermoscientific, +1% Na pyruvate ref S8636-100 ML, Sigma, +1%, Glutamax ref35050061, Thermoscientific, +1% Penicillin-Streptomycin, ref 11074440001, Sigma) 100 μl per well for 96-well plates. Control wells containing medium without cells were used to obtain a value for background luminescence. Cells were incubated at 37° C. in 5% CO2 overnight.
100 μL of medium+DMSO+peptides or medium+Taxol+peptides (at the different concentrations) were added to each well and incubated for 16 hours at 37° C. 5% CO2.
Cell morphology, viability and confluency were assessed by phase contrast microscopy. The CellTiter-Glo® Luminescent Cell Viability Assay (G7571, Promega—a homogeneous method to determine the number of viable cells in culture based on quantitation of the ATP present) was then used to quantify the number of metabolically active cells, according to the manufacturer's instructions. 100 μl volume of CellTiter-Glo® Reagent was added to the 100 μL volume of cell culture medium present in each well, Contents were mixed for 2 minutes on an orbital shaker to induce cell lysis and after incubating the plates at room temperature for 10 minutes to stabilize luminescent signal luminescence was recorded with an integration time of 0.5 seconds using a CLARIOstar multi well luminometer (BMG Labtech)

A549 cells [2] = assay: Viability of A549 cells after LanCL1 siRNA knock-down, with or without Taxol; assay type: cell-based, human
HKx31 (H3N2) = assay type: in vivo, mice; parameters: key to PMN activity score / Viral titre activity score / BAL IL-6 activity score: 0: inactive; 1: less active than the peptide of SEQ ID NO:38; 2: comparable or more active than the peptide of SEQ ID NO:38
Chung rats = assay: In vivo model of neuropathic pain (Chung model, Example 4); parameters: species or system rat; details: oral, subcutaneous and/or intramuscular administration
Text: This study was undertaken to assess the analgesic effect of the peptides described herein on neuropathic pain in vivo using a nerve constriction model in Chung rats. Briefly, adult male Sprague-Dawley rats, 8-9 weeks old, weighing 220-250 g at the time of surgery, were purchased from Charles River UK Ltd.
The animals were housed in groups of 4 in an air-conditioned room on a 12-hour light/dark cycle. Food and water were available ad libitum. They were allowed to acclimatise to the experimental environment for three days by leaving them on a raised metal mesh for at least 40 min. The baseline paw withdrawal threshold (PWT) was examined using a series of graduated von Frey hairs for 3 consecutive days before surgery and re-assessed on the 6th to 8th day after surgery and on the 12th to 14th day after surgery before drug dosing.
Each rat was anaesthetized with 5% isoflurane mixed with oxygen (2 L per min) followed by an intramuscular (i.m.) injection of ketamine 90 mg/kg plus xylazine 10 mg/kg. The back was shaved and sterilized with povidone-iodine. The animal was placed in a prone position and a para-medial incision was made on the skin covering the L4-6 level. The L5 spinal nerve was carefully isolated and tightly ligated with 6/0 silk suture. The wound was then closed in layers after a complete hemostasis. A single dose of antibiotics (Amoxipen, 15 mg/rat, i.p.) was routinely given for prevention of infection after surgery. The animals were placed in a temperature-controlled recovery chamber until fully awake before being returned to their home cages.
The vehicle (1% DMSO in PBS) or peptide was administrated intramuscularly (i.m.) into the leg of the side contralateral to the site of injury. Dosing was carried out by a second experimenter. The rats with validated neuropathic pain state were randomly divided into 5 experimental groups: 1 ml/kg vehicle, 0.1, 0.5, 1 and 5 mg/kg peptide.
Each group had 8 animals. The animals were placed in individual Perspex boxes on a raised metal mesh for at least 40 minutes before the test. Starting from the filament of lowest force (about 1 g), each filament was applied perpendicularly to the centre of the ventral surface of the paw until slightly bent for 6 seconds. If the animal withdrew or lifted the paw upon stimulation, then a hair with force immediately lower than that tested was used. If no response was observed, then a hair with force immediately higher was tested. The lowest amount of force required to induce reliable responses (positive in 3 out of 5 trials) was recorded as the value of PWT.
The drug test was carried out on the 12th to 14th day after surgery. PWT were assessed before, 1, 2 and 4 hours following drug or vehicle administration. […]

[3] = IL-6 in BAL fluid, single 10 mg/kg dose, relative to SEQ ID NO:38
[4] = single 10 mg/kg dose, day 3, relative to SEQ ID NO:38

| Molecule | Estimated Activity in A549 proliferation + stress assay (A549 cells [1]) | rescue of the negative effect of Taxol on A549 viability (A549 cells [2]; 350 μM Taxol, cell type not printed (contrast to NT and SiCTL)) | rescue of loss of viability (A549 cells [2]; 350 μM Taxol, non-transfected (NT) or SiCTL-transfected cells) | A549 proliferation in the absence of Taxol (A549 cells [2]; SiLanCL1-transfected cells) | viability of A549 cells in the absence of Taxol (A549 cells [2]; non-transfected (NT) or SiCTL-transfected cells, peptide 1-100 μM) | IL-6 levels in the BAL fluid (HKx31 (H3N2); 10 mg/kg single dose) | infiltration of polymorphonuclear cells (PMN) in bronchiolar lavage fluid caused by the viral infection (HKx31 (H3N2); 10 mg/kg single dose) | viral titres (HKx31 (H3N2); 10 mg/kg single dose, day 3) | BAL IL-6 activity score (HKx31 (H3N2); mouse, in vivo, 10 mg/kg) | PMN activity score (HKx31 (H3N2); mouse, in vivo, 10 mg/kg) | Viral titre activity score (HKx31 (H3N2); mouse, in vivo, 10 mg/kg) | reducing the PMN infiltrate in BAL fluid, compared with the peptide of SEQ ID NO:38 (HKx31 (H3N2); single 10 mg/kg dose) | neuropathic pain in the Chung model (Chung rats) | restoration of A549 viability (A549 cells [1]) | BAL IL-6 activity score (HKx31 (H3N2); [3]) | PMN activity score (HKx31 (H3N2); PMN infiltrate in BAL fluid, […], relative to SEQ ID NO:38, 10 mg/kg) | efficacy in an animal model of influenza A respiratory tract infection compared to the non-cyclized counterpart (HKx31 (H3N2); cyclic SEQ ID NO:38 versus SEQ ID NO:37) | Viral titre activity score (HKx31 (H3N2); [4]) |
| --- | --- | --- | --- | --- | --- | --- | --- | --- | --- | --- | --- | --- | --- | --- | --- | --- | --- | --- |
| CC[C@H](C)[C@H](NC(=O)[C@H](CCCNC(=N)N)NC(=O)[C@H](CC(C)C)NC(=O)[C@@H](N)Cc1ccc(O)cc1)C(=O)N[C@H](C(=O)N[C@@H](CCC(N)=O)C(=O)N[C@H]1CSSC[C@@H](C(=O)NCC(=O)N[C@@H](Cc2ccccc2)C(=O)O)NC(=O)[C@H](CO)NC(=O)CNC(=O)[C@H](CCC(=O)O)NC(=O)[C@H](C(C)C)NC(=O)[C@H](CO)NC(=O)[C@H](CCCNC(=N)N)NC1=O)C(C)C [compound 1] (H-YLRIVQCRSVEGSCGF-OH; disulfide 7-14) | STRONG (clear dose-dependent restoration of cell viability from 1-5 μM upwards) | did not rescue | rescued the loss of viability | inhibited A549 proliferation at higher doses | no significant effect | reduces; also recorded: as effective | reduces | reduces; also recorded: effective | 2 | 2 | 2 | as effective | reduced neuropathic pain | – | – | – | – | – |
| CC[C@H](C)[C@@H]1NC(=O)[C@H](CCCNC(=N)N)NC(=O)[C@@H](N)CSSC[C@@H](C(=O)O)NC(=O)[C@H](CC(N)=O)NC(=O)[C@H](CC(N)=O)NC(=O)[C@H](CC(N)=O)NC(=O)[C@H](Cc2c[nH]cn2)NC(=O)[C@H]([C@@H](C)CC)NC1=O [compound 24] (H-CRIIHNNNC-OH; disulfide 1-9) | STRONG (clear dose-dependent restoration of cell viability from 1-5 μM upwards) | – | – | – | – | – | – | – | – | – | – | – | reduced neuropathic pain | – | – | – | – | – |
| CC(C)C[C@@H]1NC(=O)[C@H](C)NC(=O)[C@H](CCCNC(=N)N)NC(=O)[C@H](CCC(=O)O)NC(=O)[C@H](CC(C)C)NC(=O)[C@H](CCC(N)=O)NC(=O)[C@H](CCC(=O)O)NC(=O)[C@H](CCC(N)=O)NC(=O)[C@@H](N)CSSC[C@@H](C(=O)O)NC(=O)[C@H](CO)NC(=O)[C@H](CO)NC(=O)[C@H](CC(N)=O)NC1=O [compound 38] (H-CQEQLERALNSSC-OH; disulfide 1-13) | MODERATE (moderate dose-dependent restoration of cell viability at >25 μM) | – | – | – | – | as effective | – | effective | – | – | – | – | – | restore A549 viability | 2 | 2 | more efficacious in vivo | 2 |
| CC(C)C[C@@H]1NC(=O)[C@H](C)NC(=O)[C@H](CCCNC(=N)N)NC(=O)[C@@H](N)CSSC[C@@H](C(=O)O)NC(=O)[C@H](CO)NC(=O)[C@H](CO)NC(=O)[C@H](CC(N)=O)NC1=O [compound 40] (H-CRALNSSC-OH; disulfide 1-8) | STRONG (clear dose-dependent restoration of cell viability from 1-5 μM upwards) | – | – | – | – | – | – | – | – | 1 | – | relatively less effective | – | restored A549 viability | 0 | – | – | 0 |
| QEQLERALNSS [compound 37] | Inactive | – | – | – | – | as effective | – | effective | 2 | 2 | 2 | – | reduced neuropathic pain | did not | – | – | – | – |
| RALNSS [compound 39] | WEAK (some or variable restoration of cell viability at 50-100 μM) | – | – | – | – | – | – | – | 2 | 2 | 2 | – | reduced neuropathic pain | partially restore A549 viability | – | – | – | – |
